22 molecules from paper PMC12136788 can be followed below.

The list shows a part of the results.

First the molecules themselves.
T1: UNK ZnF1-6 (called full-length) (human, UniProt Q9C0B0 30-357)
T1 sequence: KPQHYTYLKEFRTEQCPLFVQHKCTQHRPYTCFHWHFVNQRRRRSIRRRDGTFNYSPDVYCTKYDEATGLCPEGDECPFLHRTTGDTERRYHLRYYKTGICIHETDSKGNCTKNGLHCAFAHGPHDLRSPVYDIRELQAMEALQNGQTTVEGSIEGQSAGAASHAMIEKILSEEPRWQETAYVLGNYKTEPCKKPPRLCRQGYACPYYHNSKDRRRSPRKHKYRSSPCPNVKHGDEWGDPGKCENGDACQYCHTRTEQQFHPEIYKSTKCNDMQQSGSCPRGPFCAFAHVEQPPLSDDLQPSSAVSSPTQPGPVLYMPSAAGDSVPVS

B1: ENSG00000198589:be:win_6301|CDS|ENSG00000198589|bound_else_gene|NA|bound_elsewhere_windowed (ssRNA)
RNA: GGGAGUUCUACAGUCCGACGAUCGAUCCUAACUUCAAAAAAAUCGACCCCAAGAUCUUGGCAUAUACAGAAGGGCUGCAUGGAAAAUGGCUGUUCACAGAGAUACGAUCAAUCUUUUCUCGUCGUUAUCUUUUGCAAAAUACACAACAGAGGAUUGAGCAUCA
B2: chr11:118657315:118658441:-|three_prime_utr|ENSG00000118094|control|control|control (ssRNA)
RNA: GGGAGUUCUACAGUCCGACGAUCCCUCCCAGCCUGUCCUCAGAGCGAAGUGGAGGGCAGGGUCACGACCUGGAGGUCAUGGGUAGGGGCCUAGCUCCCUCCUGGAACCUUGAAUAGGGUGGAAAUCCUGCUCUGGAGGGAAGACAACAGAGGAUUGAGCAUCA
B3: chr8:97725557:97725573:+|3pUTR|ENSG00000147649|msi1_unk|FALSE|overlapping (ssRNA)
RNA: GGGAGUUCUACAGUCCGACGAUCGUUGACUUUAAAAAUGAAAUCAUUCACAAACUUUUGGUAUAUGAUGGAGAAUGAAAAACUAGAGUCAGACAGCUUUAAUUGACAUUGUCAACACCUCCAGUUAUCAGGAAUACAUUUUUUCAACAGAGGAUUGAGCAUCA
B4: chr15:43456694:43456846:-|CDS|ENSG00000067369|unk|total|mutant (ssRNA)
RNA: GGGAGUUCUACAGUCCGACGAUCAGACACCAGGGAUGACAUCCGUAUUUCCGCCACUGGUUGCAAGGGCAGAGAAGAAACGGCCGCAGAAGAUGUUUGUAUUGAUCUCACUUGUGAUUCGGGGAGUCAGGCAGUUCCGUCACCCAACAGAGGAUUGAGCAUCA
B5: chr1:45741042:45741143:-|CDS|ENSG00000197429|msi1|total|mutant (ssRNA)
RNA: GGGAGUUCUACAGUCCGACGAUCUGCCAUGAUCUCUUGGAAUUCUCAGAAAACUACAUUCAUGUCCAUUUCUUGGAGGUUCACCGUGGAGAAGAGUUCCUGGCACUUACGAAAGAUCAGCUGAUCAAAAUUUUGCGAAGUGAACAACAGAGGAUUGAGCAUCA
B6: chr9:37862824:37862925:+|3pUTR|ENSG00000122741|unk|total|mutant (ssRNA)
RNA: GGGAGUUCUACAGUCCGACGAUCUAUGCACCCGCCUUGCCCUCUCCGGUUGCAUUCUCUUCCGGCCACUGGUUCUCAAACAUCCGGGUGCACUGUAACCAUUACAGAGCUUGUGAAAAGUGCAGAAACCUGAGCCUCACCUUACAACAGAGGAUUGAGCAUCA
B7: ENSG00000106080:stop:overlap|stop_codon|ENSG00000106080|stop_codon|NA|stop_codon (ssRNA)
RNA: GGGAGUUCUACAGUCCGACGAUCAUGAAGACAAAGAUGGGUUUAUAUCUGCCAGAGAAUUUACAUAUAAACACGAUGAGUUAUAGAGAUACAUCUACCCUUUUAAUAUAGCACUCAUCUUUCAAGAGAGGGCAGUCAUCUUUACAACAGAGGAUUGAGCAUCA
B8: chr20:3868059:3868160:+|3pUTR|ENSG00000088888|unk|total|mutant (ssRNA)
RNA: GGGAGUUCUACAGUCCGACGAUCUCAGCCUCCAGGGAUCUACACCCUGCCUUGGCUGCUACAGCUUUUUCACUCCACUGCCCCCGGGGAGUUCAGCAACCUAAUGAUCUCUAUCUCUGAACAUCUCUUCAUCCCAUGCUCCAACAACAGAGGAUUGAGCAUCA
B9: chr4:1716041:1716142:-|3pUTR|ENSG00000168936|msi1|total|mutant (ssRNA)
RNA: GGGAGUUCUACAGUCCGACGAUCAGGCUUCCCCGAGCGCUCAGCAGGUGAAGGCAGCAGGGGCCAUGGCCGGGAGCCAGGCCCCGCUUUGAACUGAGUUUCAAGGGCUGCCAAAGAGGGGCAGUGGGUUGGGGUUGUUUUUACCAACAGAGGAUUGAGCAUCA
B10: chr11:20048915:20049016:+|CDS|ENSG00000166833|unk|FALSE|bound_elsewhere (ssRNA)
RNA: GGGAGUUCUACAGUCCGACGAUCGAGCAGUGGGAGCAGCAGUCCUCUCUACAGCAAGAAUGUGGACCUCAACCAGUCUCCGCUAGCCUCCAGCCCCAGCUCAGCCCACUCGGCCCCUUCCAACAGCCUCACCUGGGGCACCAACAACAGAGGAUUGAGCAUCA
B11: ENSG00000214517:stop:overlap|stop_codon|ENSG00000214517|stop_codon|NA|stop_codon (ssRNA)
RNA: GGGAGUUCUACAGUCCGACGAUCUGAUCCGGCACAGGUUUGCAGAACCCAUCGGUGGAUUCCAGUGUGUGUUUCCUGGCUGUUAGUGACCUGCUGUCCACCCCUCCUCAACAUCGAGCUCUGUUGUAAAUACGUCGCACCAGACAACAGAGGAUUGAGCAUCA
B12: chr12:49796586:49796721:-|CDS|ENSG00000167566|msi1|total|mutant (ssRNA)
RNA: GGGAGUUCUACAGUCCGACGAUCGAGGCCCACAGGCCAGGCUUCGGUGCUACCUCAGAGGGCCAGGGGCCCCUCCCCUUCCUCCGCAUGUUCAUGGGUGCUGGGGAUGCCCCACUGGGCUCUCGGCCUGGCCACCCCCAUUCCCAACAGAGGAUUGAGCAUCA
B13: chr15:22866942:22867043:+|3pUTR|ENSG00000140157|msi1|FALSE|unique (ssRNA)
RNA: GGGAGUUCUACAGUCCGACGAUCUAAAGAUUUCACUAAUUUGGACCAAGAAAUUACUUUUCUUGUAUUUAAACAAACAAUGGUAGCUCACUAAAAUGACCUCAGCACAUGACGAUUUCUAUUAACAUUUUAUUGUUGUAGAAGCAACAGAGGAUUGAGCAUCA
B14: chr1:214663888:214664008:+|3pUTR|ENSG00000117724|msi1|total|mutant (ssRNA)
RNA: GGGAGUUCUACAGUCCGACGAUCAGGAGAAAACAAUUCCUCCGAAGUCUUAAAUAUAUUGUACUCUUCCGAUCUCCCAUGUGCCGGUAUUGAAAAAGUUUGGAAGCACUGAUCACCUGUCCGCAUUGCCAUUCCUCUACUGCACAACAGAGGAUUGAGCAUCA
B15: chr2:240467638:240467855:+|3pUTR|ENSG00000063660|msi1|total|mutant (ssRNA)
RNA: GGGAGUUCUACAGUCCGACGAUCGGACGGAGGUCCCCGGUUGCUGGUCAGGUCCCCAUGGCUUGUUCUCUGGAACCUGACUUCCGAUGUUUUGGGAUCAGGAGCCCCCAACACAGGCAAGUCCACCCCAUAAUAACCCUGCCACAACAGAGGAUUGAGCAUCA
B16: chr4:75812186:75812332:+|CDS|ENSG00000138768|unk|FALSE|unique (ssRNA)
RNA: GGGAGUUCUACAGUCCGACGAUCAGAGCAGCUGGAUUCAUCUAAUAGUACCAUUGCCAUUUUACAAACUGAGAAAGACAAACUAGAGUUGGAAAUUACAGAUUCUAAAAAAGAACAAGAUGAUCUCUUGGUGCUCUUGGCCGACAACAGAGGAUUGAGCAUCA
B17: chr7:92612324:92612425:-|3pUTR|ENSG00000105810|msi1|FALSE|bound_elsewhere (ssRNA)
RNA: GGGAGUUCUACAGUCCGACGAUCAUCCAACACAAGCAGUCUUGCCGUUAGGGCAUUUUGAAGCAGAUAGUAGAGUAAGAACUUAGUGACUACAGCUUAUUCUUCUGUAACAUAUGGUUUCAAACAUCUUUGCCAAAAGCUAAGCAACAGAGGAUUGAGCAUCA
B18: chr11:35619468:35619569:+|CDS|ENSG00000179431|unk|FALSE|unique (ssRNA)
RNA: GGGAGUUCUACAGUCCGACGAUCCCCCCUCCGGGAUGCCGGGGGUGAGCUGGCCAACCUCAGCCAGGCGGAGCUGGUGGACCUAGUACAAUGGACCGACUUAAUCCUUUUCGACUACCUGACGGCCAACUUCGACCGGCUCGUCAACAGAGGAUUGAGCAUCA
B19: chr9:93565116:93565217:+|3pUTR|ENSG00000048828|unk|total|mutant (ssRNA)
RNA: GGGAGUUCUACAGUCCGACGAUCAUAUACAAUACAUCAUACAUACUUUACAAGCAAGUUAAAUGGAGAUAAAGUUGAAAUCACCGAAGAUGCAAAUGACCUUUCAAAAUCAACACAAUGUGUUCUGAAACUUUCGUGACUAAUCAACAGAGGAUUGAGCAUCA
B20: chr16:58279996:58280223:-|three_prime_utr|ENSG00000103023|control|control|control (ssRNA)
RNA: GGGAGUUCUACAGUCCGACGAUCGUAAACUGAGAAUGCUGAGUGCCAGGCAUUCACCAUGCUGUUUUGAUGUCUGUUUUUGAUAGUUGCACACUGGGGCUGCCACGGAUAAGCCCAUGGCAUACACUGGGCUGGCUCUCCCUCCAACAGAGGAUUGAGCAUCA
B21: chr10:67912576:67912687:+|CDS|ENSG00000096717|unk|FALSE|unique (ssRNA)
RNA: GGGAGUUCUACAGUCCGACGAUCUUUUGAUGUAGAGCUUCUUGGAGACUGUGAUGUCAUAAUUAAUGAAUUGUGUCAUAGGUUAGGUGGUGAAUAUGCCAAACUUUGCUGUAACCCUGUAAAGCUUUCAGAAAUUACUGAAAACAACAGAGGAUUGAGCAUCA
B22: chr19:4839056:4839157:-|3pUTR|ENSG00000105355|msi1|FALSE|unique (ssRNA)
RNA: GGGAGUUCUACAGUCCGACGAUCUCUAUAAUGCAGCUGUGCUCUGGAGUCCUCAACCCGGGGCUCAUUUCAAACUUAUUUUCUAGCCACUCCUCCCAGCUCUUCUGUGCUGUCCACUUGGGAAGCUAAGGCUCUCAAAACGGGCAACAGAGGAUUGAGCAUCA

The target of the experiment is T1, UNK ZnF1-6 (called full-length). The experiment can be described thus: nsRBNS (natural sequence RNA bind-n-seq); RBNS binding buffer (assumed for nsRBNS): 25 mM Tris pH 7.5, 150 mM KCl, 3 mM MgCl2, 0.01% Triton X-100, 500 ug/ml BSA, 20 U/ml SUPERase-In, 4 C; UNK is unkempt and MSI1 is Musashi-1; names of the RNAs are library labels; protein concentration not given here; high values mean tight binding.
Turning to B1, the binding signal was found to be 0.311 enrichment R. The molecule B2 registered a binding signal of 0.564 enrichment R. B3 had a binding signal of 0.539 enrichment R. Molecule B4 registered a binding signal of 0.732 enrichment R. The result for B5 reads 0.281 enrichment R; that for B6, 0.527 enrichment R; that for B7, 1.48 enrichment R. The molecule B8 registered a binding signal of 0.715 enrichment R. In the case of B9 it was 0.696 enrichment R.

Take B10: the binding signal was found to be 0.892 enrichment R. The result for B11 reads 0.464 enrichment R; that for B12, 0.649 enrichment R; that for B13, 0.431 enrichment R. In the case of B14 it was 0.417 enrichment R; in that of B15, 0.656 enrichment R.

B16 yielded a binding signal of 0.719 enrichment R. In turn, B17 registered a binding signal of 0.369 enrichment R. In turn, B18 showed a binding signal of 0.618 enrichment R. Molecule B19 displayed a binding signal of 0.371 enrichment R. In the case of B20 it was 0.653 enrichment R. The result for B21 reads 1.36 enrichment R. In turn, B22 displayed a binding signal of 0.963 enrichment R.
